According to the BET-seq Pho4 binding data (Le et al. 2018):
Some of the results follow. Values were computed here from the reads of four pooled replicates and scatter widely.

These sequences were tested against T1, Pho4 (S. cerevisiae) (UniProt P07270) (assay: relative binding free energy (BET-seq); higher = weaker binding). Details: reference: library average.
T1 sequence: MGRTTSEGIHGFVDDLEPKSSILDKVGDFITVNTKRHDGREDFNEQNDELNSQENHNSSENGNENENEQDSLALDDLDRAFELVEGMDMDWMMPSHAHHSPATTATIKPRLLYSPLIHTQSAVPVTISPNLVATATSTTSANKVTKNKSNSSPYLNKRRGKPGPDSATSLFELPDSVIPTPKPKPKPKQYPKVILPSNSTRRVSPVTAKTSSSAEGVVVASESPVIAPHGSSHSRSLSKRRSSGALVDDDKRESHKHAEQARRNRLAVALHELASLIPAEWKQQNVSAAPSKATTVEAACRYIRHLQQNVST
With CTCGTCACGTGTTGGG the “relative binding free energy” value was 0.07 kcal/mol. For GGGATCACGTGGAGAT, the “relative binding free energy” value was 0.15 kcal/mol. CCGTTCACGTGTTGTT was tested, and the “relative binding free energy” value was 0.19 kcal/mol. For AAGGGCACGTGTCGGG, the “relative binding free energy” value was 0.05 kcal/mol. With TGTGTCACGTGGATCG the “relative binding free energy” value was 0.13 kcal/mol. In the case of GGCGGCACGTGGATGC, the “relative binding free energy” value is reported as 0 kcal/mol. For TACGTCACGTGACGGG, the “relative binding free energy” value was 0.15 kcal/mol. CATGGCACGTGGCGTG was tested, and the “relative binding free energy” value was -0.09 kcal/mol. In the case of GGGGCCACGTGGGAGA, the “relative binding free energy” value is reported as -0.13 kcal/mol. For GGGAGCACGTGGTGTT, the “relative binding free energy” value was -0.02 kcal/mol. With TGCTGCACGTGTCTGG the “relative binding free energy” value was -0.05 kcal/mol. In the case of ATTTGCACGTGAGCGA, the “relative binding free energy” value is reported as 0.23 kcal/mol. In the case of TGCGGCACGTGTGCTA, the “relative binding free energy” value is reported as -0.04 kcal/mol. For ATTGTCACGTGTTAGG, the “relative binding free energy” value was 0.09 kcal/mol. In the case of CCCGGCACGTGGGGGG, the “relative binding free energy” value is reported as -0.34 kcal/mol. With GGAGGCACGTGGGACA the “relative binding free energy” value was -0.2 kcal/mol. In the case of GTAGGCACGTGCTTGG, the “relative binding free energy” value is reported as -0.02 kcal/mol. CTGGGCACGTGCTGAG was tested, and the “relative binding free energy” value was -0.18 kcal/mol. In the case of TCGTGCACGTGTAGTT, the “relative binding free energy” value is reported as -0.09 kcal/mol. For AGGTGCACGTGGTACA, the “relative binding free energy” value was -0.11 kcal/mol. In the case of AGTCTCACGTGGGACG, the “relative binding free energy” value is reported as 0.32 kcal/mol. For TGCTTCACGTGTTTTT, the “relative binding free energy” value was 0.22 kcal/mol. In the case of TGAGACACGTGATTTG, the “relative binding free energy” value is reported as 0.07 kcal/mol. For TTGGTCACGTGGTGCC, the “relative binding free energy” value was 0.08 kcal/mol. For GGAAGCACGTGAGGGG, the “relative binding free energy” value was 0.06 kcal/mol. For TGGCCCACGTGGTTAG, the “relative binding free energy” value was -0.11 kcal/mol. For TCTCGCACGTGGGGGC, the “relative binding free energy” value was -0.09 kcal/mol. In the case of GTTGGCACGTGCGTAG, the “relative binding free energy” value is reported as 0.02 kcal/mol. AGTCTCACGTGAGGAT was tested, and the “relative binding free energy” value was 0.35 kcal/mol. For CGCAGCACGTGGGGGT, the “relative binding free energy” value was -0.25 kcal/mol. For TGTGCCACGTGTAATT, the “relative binding free energy” value was 0.07 kcal/mol. For ACCTACACGTGTTGGT, the “relative binding free energy” value was 0.33 kcal/mol. TTTGGCACGTGGGAAA was tested, and the “relative binding free energy” value was -0.11 kcal/mol. AATTTCACGTGAGAAG was tested, and the “relative binding free energy” value was 0.43 kcal/mol. For AAGTTCACGTGAGGAG, the “relative binding free energy” value was 0.28 kcal/mol. In the case of CGAGTCACGTGGTAGG, the “relative binding free energy” value is reported as -0.04 kcal/mol. For ATTGACACGTGTAGAG, the “relative binding free energy” value was 0.02 kcal/mol. With TTATTCACGTGGTTTA the “relative binding free energy” value was 0.21 kcal/mol. In the case of GCCGTCACGTGGTTTG, the “relative binding free energy” value is reported as 0.09 kcal/mol. For GAATTCACGTGGTATG, the “relative binding free energy” value was 0.27 kcal/mol. For GTGCTCACGTGTTAGA, the “relative binding free energy” value was 0.28 kcal/mol. TCAGGCACGTGTCGGA was tested, and the “relative binding free energy” value was 0.01 kcal/mol. With AGGGTCACGTGTCAGG the “relative binding free energy” value was 0.1 kcal/mol. For ATATACACGTGGGCTG, the “relative binding free energy” value was -0.18 kcal/mol. With TATTCCACGTGGTTTT the “relative binding free energy” value was -0.08 kcal/mol. In the case of AGGAGCACGTGTATGG, the “relative binding free energy” value is reported as -0.17 kcal/mol. In the case of ATTGGCACGTGTACTG, the “relative binding free energy” value is reported as 0.06 kcal/mol. With AGAATCACGTGTTTGT the “relative binding free energy” value was 0.12 kcal/mol. TAGTGCACGTGCAGTT was tested, and the “relative binding free energy” value was 0.12 kcal/mol. TAGAGCACGTGATGGG was tested, and the “relative binding free energy” value was 0 kcal/mol. In the case of GGGTACACGTGTACTT, the “relative binding free energy” value is reported as 0.14 kcal/mol. With GTCGTCACGTGGTGGG the “relative binding free energy” value was -0.05 kcal/mol. With GTTAGCACGTGGGTTC the “relative binding free energy” value was -0.16 kcal/mol. With GTGTGCACGTGTGAAA the “relative binding free energy” value was -0.01 kcal/mol. With TTATTCACGTGGTGGC the “relative binding free energy” value was 0.32 kcal/mol. GTGAACACGTGGTTCG was tested, and the “relative binding free energy” value was 0.11 kcal/mol. With TGTGACACGTGATGTG the “relative binding free energy” value was 0.06 kcal/mol. In the case of TGCGGCACGTGGCTGT, the “relative binding free energy” value is reported as -0.19 kcal/mol. In the case of CGGGACACGTGTAGTA, the “relative binding free energy” value is reported as 0.03 kcal/mol. With AGCATCACGTGTGTAG the “relative binding free energy” value was 0 kcal/mol. In the case of GCATGCACGTGTATGG, the “relative binding free energy” value is reported as 0.07 kcal/mol. GGTGGCACGTGGCTTT was tested, and the “relative binding free energy” value was -0.08 kcal/mol. In the case of GATGTCACGTGTGAGT, the “relative binding free energy” value is reported as 0.15 kcal/mol. GTAGTCACGTGGGAGG was tested, and the “relative binding free energy” value was 0.02 kcal/mol. For AATATCACGTGAGTGT, the “relative binding free energy” value was 0.36 kcal/mol. AATTTCACGTGGATGA was tested, and the “relative binding free energy” value was 0.18 kcal/mol. In the case of GACGTCACGTGGGAGG, the “relative binding free energy” value is reported as 0.12 kcal/mol. For GGTGGCACGTGACTGC, the “relative binding free energy” value was 0.1 kcal/mol. For ATTTTCACGTGAATCG, the “relative binding free energy” value was 0.42 kcal/mol. ATCTGCACGTGTAGTG was tested, and the “relative binding free energy” value was 0.06 kcal/mol. In the case of TGACGCACGTGTTTGG, the “relative binding free energy” value is reported as -0.05 kcal/mol. In the case of TTGGGCACGTGTGAGG, the “relative binding free energy” value is reported as 0 kcal/mol. In the case of TGATGCACGTGAGTAG, the “relative binding free energy” value is reported as 0.16 kcal/mol. For ATGCTCACGTGGATGT, the “relative binding free energy” value was 0.12 kcal/mol. For AGAGTCACGTGGATGG, the “relative binding free energy” value was 0.06 kcal/mol. For ATATACACGTGAGTCG, the “relative binding free energy” value was 0.35 kcal/mol. GCCGCCACGTGGGTGG was tested, and the “relative binding free energy” value was -0.1 kcal/mol. In the case of TTGGGCACGTGAGGCA, the “relative binding free energy” value is reported as 0.05 kcal/mol. For CGGGTCACGTGTGAAA, the “relative binding free energy” value was 0.18 kcal/mol. For CGGTGCACGTGGAGAG, the “relative binding free energy” value was -0.02 kcal/mol. In the case of AAACGCACGTGGTGTT, the “relative binding free energy” value is reported as -0.19 kcal/mol. For TAAGGCACGTGGATGA, the “relative binding free energy” value was -0.06 kcal/mol. For CTCGTCACGTGGAGTG, the “relative binding free energy” value was 0.03 kcal/mol. In the case of TTAGTCACGTGTAGAG, the “relative binding free energy” value is reported as 0.06 kcal/mol. With GATTACACGTGATTGT the “relative binding free energy” value was 0.22 kcal/mol. In the case of TAAAGCACGTGTGGTA, the “relative binding free energy” value is reported as -0.11 kcal/mol. For TGATGCACGTGCCGTG, the “relative binding free energy” value was -0.08 kcal/mol. With ATGGGCACGTGGATGA the “relative binding free energy” value was -0.05 kcal/mol. With GGGGACACGTGCGGTC the “relative binding free energy” value was -0.05 kcal/mol. TTGATCACGTGTTCTT was tested, and the “relative binding free energy” value was 0.17 kcal/mol. With CGCGTCACGTGTTGGT the “relative binding free energy” value was -0.11 kcal/mol. GTGATCACGTGCGGGT was tested, and the “relative binding free energy” value was 0.02 kcal/mol. In the case of TTAGGCACGTGGTGAT, the “relative binding free energy” value is reported as -0.16 kcal/mol. ATCGGCACGTGGTCGG was tested, and the “relative binding free energy” value was -0.21 kcal/mol. In the case of GCGCTCACGTGAGGGT, the “relative binding free energy” value is reported as 0.27 kcal/mol. With GGCAGCACGTGTGCGT the “relative binding free energy” value was -0.08 kcal/mol. GTTTTCACGTGAATTA was tested, and the “relative binding free energy” value was 0.35 kcal/mol. With GTATACACGTGTGCGG the “relative binding free energy” value was -0.08 kcal/mol. In the case of GAGGACACGTGGAGGT, the “relative binding free energy” value is reported as 0.15 kcal/mol. For CTAAACACGTGGGGGA, the “relative binding free energy” value was -0.01 kcal/mol. CTATGCACGTGTTGGT was tested, and the “relative binding free energy” value was -0.1 kcal/mol. With ATGCTCACGTGTTATG the “relative binding free energy” value was 0.22 kcal/mol. In the case of TTGAGCACGTGGAGTT, the “relative binding free energy” value is reported as -0.07 kcal/mol. For GGGGTCACGTGTATGA, the “relative binding free energy” value was 0.2 kcal/mol. For TAAGGCACGTGGTGGG, the “relative binding free energy” value was -0.21 kcal/mol. GTTAACACGTGGAGTA was tested, and the “relative binding free energy” value was 0.18 kcal/mol. For TTCTGCACGTGGCGGG, the “relative binding free energy” value was 0.02 kcal/mol. TGGGTCACGTGTGGAT was tested, and the “relative binding free energy” value was 0.2 kcal/mol. For GTGGACACGTGTAGGG, the “relative binding free energy” value was 0.02 kcal/mol. With AGGGACACGTGATATT the “relative binding free energy” value was 0.15 kcal/mol. With AGAGTCACGTGACTGG the “relative binding free energy” value was 0.19 kcal/mol. AGCGACACGTGTATTG was tested, and the “relative binding free energy” value was 0.06 kcal/mol. For GTGATCACGTGGATGA, the “relative binding free energy” value was 0.21 kcal/mol. For GCGTTCACGTGTTTTT, the “relative binding free energy” value was 0.24 kcal/mol. For TGTAACACGTGAGGGA, the “relative binding free energy” value was 0.16 kcal/mol. With GGTAACACGTGTGGTA the “relative binding free energy” value was 0.01 kcal/mol. In the case of GTGTGCACGTGATTTA, the “relative binding free energy” value is reported as 0.16 kcal/mol. With CTTTTCACGTGTTGGC the “relative binding free energy” value was 0.36 kcal/mol. AAGGGCACGTGTGGTT was tested, and the “relative binding free energy” value was -0.02 kcal/mol. For TCATTCACGTGTATGG, the “relative binding free energy” value was 0.33 kcal/mol. With GAGATCACGTGTCGGG the “relative binding free energy” value was 0.13 kcal/mol. In the case of TAATTCACGTGGTGAA, the “relative binding free energy” value is reported as 0.15 kcal/mol. GGCTTCACGTGTGTGG was tested, and the “relative binding free energy” value was 0.33 kcal/mol. TGGTGCACGTGTGTTG was tested, and the “relative binding free energy” value was 0.01 kcal/mol. With GGAGGCACGTGTAGTG the “relative binding free energy” value was -0.11 kcal/mol. For TTGGACACGTGAAATA, the “relative binding free energy” value was 0.29 kcal/mol. For CTGAGCACGTGGGGGC, the “relative binding free energy” value was -0.29 kcal/mol. In the case of GGGCACACGTGATTGG, the “relative binding free energy” value is reported as 0.19 kcal/mol. AAATGCACGTGGTGGG was tested, and the “relative binding free energy” value was -0.06 kcal/mol. In the case of TTGATCACGTGGAGTA, the “relative binding free energy” value is reported as 0.24 kcal/mol. In the case of TGGAGCACGTGTATGT, the “relative binding free energy” value is reported as -0.07 kcal/mol. TTTGACACGTGAAGGT was tested, and the “relative binding free energy” value was 0.11 kcal/mol. With AGCGTCACGTGTGGTT the “relative binding free energy” value was 0 kcal/mol. With GTGTGCACGTGTTTTG the “relative binding free energy” value was 0.05 kcal/mol. GTCTTCACGTGTTGCG was tested, and the “relative binding free energy” value was 0.27 kcal/mol. With GATATCACGTGCGGTG the “relative binding free energy” value was 0.1 kcal/mol. For ATCGGCACGTGTGTCG, the “relative binding free energy” value was -0.09 kcal/mol. With GTCGTCACGTGGTGAT the “relative binding free energy” value was 0.04 kcal/mol. For TATGTCACGTGCGAAG, the “relative binding free energy” value was 0.06 kcal/mol. GACTGCACGTGTAGTT was tested, and the “relative binding free energy” value was 0.05 kcal/mol. GGGGCCACGTGGTGGG was tested, and the “relative binding free energy” value was -0.11 kcal/mol. For GTCTGCACGTGTGGCG, the “relative binding free energy” value was 0 kcal/mol. TGGACCACGTGGGTGG was tested, and the “relative binding free energy” value was -0.25 kcal/mol. With TTTTACACGTGGCTAA the “relative binding free energy” value was 0.15 kcal/mol. With AAAAGCACGTGTTGGG the “relative binding free energy” value was 0.03 kcal/mol. With GTAGGCACGTGGTGTA the “relative binding free energy” value was -0.14 kcal/mol.
